Among all 39,000 compounds or so, about 220 (0.56%) showed activity. The list shows a part of the results.
System: Escherichia coli K-12 BW25113
Assay: relative growth (OD600 normalised to plate interquartile mean) (fraction); higher = less growth inhibition, active = 0.2 or less
Details: 50 µM; LB; incubation time: overnight (16-24 h)
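Also: static incubation at 37 °C against the wild-type strain, values averaged over two biological replicates.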

Compound	relative growth
Cc1noc(C)c1S(=O)(=O)N(C)C[C@H]1Oc2ccc(NS(=O)(=O)c3cccs3)cc2CC(=O)N([C@H](C)CO)C[C@H]1C	inactive: 0.998
O=C(N[C@@H]1CC[C@H](CCNS(=O)(=O)c2ccc(F)cc2)O[C@H]1CO)C1CC1	inactive: 0.984
COc1ccc(cc1)S(=O)(=O)N1C[C@]2(CN(Cc3ccncc3)[C@@H](CO)c3[nH]c4cc(ccc4c32)OC)C1	inactive: 1
C[C@@H]1CCCCO[C@H](CN(C)Cc2ccc3c(c2)OCO3)[C@@H](C)CN([C@H](C)CO)C(=O)c2cc(NC(=O)Nc3ccc(C(F)(F)F)cc3)ccc2O1	inactive: 1.05
CCS(=O)(=O)N1CC[C@]2(CC1)CN([C@H](CO)c1[nH]c3cc(ccc3c12)OC)S(=O)(=O)c1cccc(c1)OC	inactive: 1.01
C[C@H]1CCCCO[C@H](CN(C)Cc2ccncc2)[C@@H](C)CN([C@@H](C)CO)C(=O)c2cc(NC(=O)C3CCCCC3)ccc2O1	inactive: 0.956
C[C@@H]1CCCCO[C@@H](CN(C)Cc2ccc(C(=O)O)cc2)[C@@H](C)CN([C@@H](C)CO)C(=O)c2cc(NC(=O)Nc3ccc(C(F)(F)F)cc3)ccc2O1	inactive: 0.953
C[C@H](CO)N1C[C@H](C)[C@H](CN(C)Cc2cccc(C(F)(F)F)c2)Oc2ncc(-c3ccccc3)cc2C1=O	inactive: 1.01
O=C(N[C@@H]1CC[C@@H](CC(=O)N2CCOCC2)O[C@@H]1CO)c1ccc2c(c1)OCO2	inactive: 1.02
CCS(=O)(=O)N1CC[C@]2(CC1)CN(Cc1ccc3c(c1)OCO3)[C@H](CO)c1c2c2ccc(cc2n1C)OC	inactive: 1.03
COc1ccc(NC(=O)N(C)C[C@H]2OCCCC[C@@H](C)Oc3ccc(NC(=O)Nc4ccc5c(c4)OCO5)cc3C(=O)N([C@H](C)CO)C[C@H]2C)cc1	inactive: 1.01
COc1ncc(NC(=O)C2CC2)c(OC)n1	inactive: 1.03
CN(C)CCCNC(=O)[C@@H]1[C@@H](CO)[C@@H]2Cn3c(ccc(-c4ccncc4)c3=O)[C@H]1N2C(=O)C1CC1	inactive: 0.938
C[C@H]1CN([C@@H](C)CO)C(=O)c2cc(NC(=O)Nc3ccc(F)cc3)ccc2O[C@@H]1CN(C)C(=O)Nc1cccc2ccccc12	inactive: 0.953
C[C@H]1CN([C@@H](C)CO)C(=O)c2cc(C#Cc3ccccc3F)cnc2O[C@@H]1CN(C)S(=O)(=O)c1ccccc1	inactive: 1.02
C[C@@H]1CCCCO[C@@H](CN(C)Cc2ccc(C(F)(F)F)cc2)[C@@H](C)CN([C@H](C)CO)C(=O)c2cc(NC(=O)CCCN(C)C)ccc2O1	inactive: 0.948
Cc1ccc(S(=O)(=O)N(C)C[C@H]2OCCCC[C@@H](C)Oc3ccc(NC(=O)Nc4ccc(C(F)(F)F)cc4)cc3C(=O)N([C@@H](C)CO)C[C@H]2C)cc1	inactive: 1.02
C[C@@H]1CN([C@@H](C)CO)C(=O)c2cc(NC(=O)Cc3ccccc3)ccc2O[C@@H](C)CCCCO[C@@H]1CN(C)Cc1ccncc1	inactive: 0.973
CCS(=O)(=O)Nc1ccc2c(c1)C(=O)N(C)[C@@H]1CC[C@H](CC(=O)NCCCN3CCOCC3)O[C@@H]1CO2	inactive: 1.02

Compound	relative growth
C[C@H]1CN([C@@H](C)CO)C(=O)c2cc(C#Cc3cccc(F)c3)cnc2O[C@@H]1CN(C)C(=O)C1CCOCC1	inactive: 0.99
C[C@@H]1CCCCO[C@@H](CN(C)Cc2ccc(C(F)(F)F)cc2)[C@H](C)CN([C@@H](C)CO)C(=O)c2cc(NC(=O)Nc3ccc(C(F)(F)F)cc3)ccc2O1	inactive: 1
C[C@H](CO)N1C[C@H](C)[C@H](CN(C)C(=O)c2cccnc2)Oc2cc(C#CC3(O)CCCC3)ccc2S1(=O)=O	inactive: 1
COCC#Cc1cnc2c(c1)C(=O)N([C@H](C)CO)C[C@H](C)[C@@H](CN(C)S(=O)(=O)c1cn(C)cn1)O2	inactive: 0.984
O=C1CCCSc2ccccc21	inactive: 0.967
Cc1ccc(S(=O)(=O)Nc2ccc3c(c2)C(=O)N([C@H](C)CO)C[C@H](C)[C@@H](CN(C)S(=O)(=O)c2ccc(Cl)cc2)OCCCC[C@H](C)O3)cc1	inactive: 1.02
CCC(=O)Nc1ccc2c(c1)OC[C@H](C)N(C(=O)CN1CCOCC1)C[C@H](C)[C@@H](OC)CN(C)C2=O	inactive: 0.967
CCNC(=O)N1CCCC[C@@H]1CO	inactive: 1.02
Cc1noc(C)c1NC(=O)Nc1ccc2c(c1)C(=O)N([C@H](C)CO)C[C@@H](C)[C@@H](CN(C)C(=O)C1CCCCC1)OCCCC[C@H](C)O2	inactive: 0.838
C[C@@H]1CN([C@@H](C)CO)C(=O)c2cc(NC(=O)C3CCCCC3)ccc2O[C@@H](C)CCCCO[C@@H]1CN(C)C(=O)Nc1ccc(F)cc1	inactive: 0.983
Cc1noc(C)c1NC(=O)Nc1ccc2c(c1)CC(=O)N([C@H](C)CO)C[C@H](C)[C@H](CN(C)CC1CC1)O2	inactive: 1
C[C@@H]1CN([C@H](C)CO)S(=O)(=O)c2ccc(-c3cncnc3)cc2O[C@@H]1CN(C)C(=O)c1cccc(F)c1	inactive: 1.01
Cc1ccc(S(=O)(=O)Nc2cccc3c2O[C@H](CN(C)C(=O)NC(C)C)[C@H](C)CN([C@H](C)CO)C3=O)cc1	inactive: 1.02
S=c1[nH]c2ccccc2s1	inactive: 0.878
CC(C)(N)CO.Cn1c(=O)c2[nH]c(Br)nc2n(C)c1=O	inactive: 1.03
C[C@@H]1CCCCO[C@@H](CN(C)C(=O)Cc2ccccc2)[C@H](C)CN([C@H](C)CO)C(=O)c2cc(NS(=O)(=O)c3cccs3)ccc2O1	inactive: 1.01
CCS(=O)(=O)N1C[C@]2(C1)CN([C@@H](CO)c1c2c2ccc(cc2n1C)OC)C(=O)Nc1c(noc1C)C	inactive: 0.994
COc1ccc(NC(=O)N(C)C[C@@H]2OCCCC[C@@H](C)Oc3ccc(NC(=O)Nc4c(C)noc4C)cc3C(=O)N([C@@H](C)CO)C[C@H]2C)cc1	inactive: 1
COc1ccc(S(=O)(=O)N(C)C[C@H]2Oc3c(NC(=O)c4cnccn4)cccc3C(=O)N([C@@H](C)CO)C[C@@H]2C)cc1	inactive: 1.01

Source: the supplement of paper PMC9446081
